According to the supplement of paper PMC11417369:
± gives the standard deviation of the averaged measurements. The list shows a part of the results.

What follows are sequences tested on PfAP2-G AP2 domain (GST-tagged) (assay: gcPBM binding intensity (ln(normalized median fluorescence intensity)); higher = stronger DNA binding).
How it was run: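 Each value is the highest Masliner-normalised natural-log median intensity across replicate spots of either orientation of a probe. The probes were primer-extended double-stranded 36-bp intergenic genomic sequences on an Agilent 4 × 180k array, alongside negative controls, exposed for 1 h to GST-tagged P. falciparum DNA-binding domains expressed in E. coli. Bound protein was picked up with Alexa488 anti-GST antibody and scanned at 488 nm.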
For “ACATTAACATTGTTGGTGCAAAATTAATATGTTTTT [GTGCAC_site9673]”, the “gcPBM binding intensity (ln)” value was 9.97 ± 0.16.
With “AGTAGTCTGGAGAAGAGTACACAGTATCTGGTAGCT [XGTACX_site2042]” the “gcPBM binding intensity (ln)” value was 11.5 ± 0.9.
For “TATGTGAATATTGAGGTGCGGTTGTTAAAATTTATA [GTGCAC_site9915]”, the “gcPBM binding intensity (ln)” value was 10.2 ± 0.25.
In the case of “CAAACATATTAATGTACACACACCCACCCACAAACA [CACACA_site2752]”, the “gcPBM binding intensity (ln)” value is reported as 11.4 ± 0.88.
In the case of “TTTTTTTCAATATTTGCACACGATTAAAATATTTAA [CACACA_site5266]”, the “gcPBM binding intensity (ln)” value is reported as 10 ± 0.17.
With “TATTATATATATATATGTACATATTGTATGTTATAT [XGTACX_site5303]” the “gcPBM binding intensity (ln)” value was 11.1 ± 0.56.
For “TAATTATTATTAATAGTACACACTATGGCATTTCAA [CACACA_site2488]”, the “gcPBM binding intensity (ln)” value was 11.1 ± 0.84.
For “TTAAATATTTTTTATACACACATTTCTTATTTAACT [CACACA_site229]”, the “gcPBM binding intensity (ln)” value was 9.9 ± 0.085.
In the case of “TTTTACTAAATATATACACACATTATGCATATATAT [CACACA_site3287]”, the “gcPBM binding intensity (ln)” value is reported as 10.03 ± 0.078.
In the case of “ACCCACGTAAATTAAGCATGCCTTCCGTTATATTTA [TGCATGCA_site365]”, the “gcPBM binding intensity (ln)” value is reported as 10 ± 0.014.
“TATATGTAATATTATACATGCATACATAATATATAT [TGCATGCA_site558]” was tested, and the “gcPBM binding intensity (ln)” value was 9.89 ± 0.2.
With “TATGTGAATATAATCACACACAATACGGAAAGAGAC [CACACA_site7311]” the “gcPBM binding intensity (ln)” value was 10.7 ± 0.39.
For “TTTTTTTTTTATAAGGCACACATGAATATTTATACA [CACACA_site1316]”, the “gcPBM binding intensity (ln)” value was 10.3 ± 0.38.
“CTGTGTAATTTAAATTGTACGTTTGAAAAAAATAAA [XGTACX_site5667]” was tested, and the “gcPBM binding intensity (ln)” value was 11.2 ± 0.77.
With “AAAACACTTATGGATTGTACAATAAAAATTATATTA [XGTACX_site7042]” the “gcPBM binding intensity (ln)” value was 10.9 ± 0.49.
With “AATGTGATAATATACACACACGCATATATATATATA [CACACA_site323]” the “gcPBM binding intensity (ln)” value was 10.5 ± 0.81.
With “TTTTAAAGAAAAAAATGTACAAAATTTTTATTTTAA [XGTACX_site1496]” the “gcPBM binding intensity (ln)” value was 10.6 ± 0.35.
With “GTATTATCTGCTTTTTGTACACATATATTTAAAAAA [XGTACX_site7603]” the “gcPBM binding intensity (ln)” value was 11.4 ± 0.95.
“ACATTCACAAAATTTTGTACACATATATATATATAT [XGTACX_site3518]” was tested, and the “gcPBM binding intensity (ln)” value was 11.3 ± 0.87.
“TTCTGTGTGTATTGGCGTACAATTATTTTGCCTACA [XGTACX_site205]” was tested, and the “gcPBM binding intensity (ln)” value was 11.7 ± 0.83.
“TATATGTCAATATCTACACACATATAGGTAATTATT [CACACA_site7475]” was tested, and the “gcPBM binding intensity (ln)” value was 10.01 ± 0.057.
With “TATACTATACAACACATACACACAAAAAAAAAAAAA [CACACA_site537]” the “gcPBM binding intensity (ln)” value was 9.96 ± 0.52.
In the case of CGATTTTTTAAGTTTGTGCACTTAAAAACTATAACA, the “gcPBM binding intensity (ln)” value is reported as 10.5 ± 0.4.
In the case of “CCATTTGATAATAATGCACACCACATATATTTATAT [CACACA_site9002]”, the “gcPBM binding intensity (ln)” value is reported as 10.14 ± 0.099.
With “AAAAGGAATTATAGGAAATAAATATATACAAATATA [TGCATGCA_negctrl_site528]” the “gcPBM binding intensity (ln)” value was 9.63 ± 0.2.
“TAAATCATGGGATAAGCATGCGCGCACATGTTTGTT [TGCATGCA_site768]” was tested, and the “gcPBM binding intensity (ln)” value was 10.2 ± 0.11.
For “TTTATTTATTAAGAATGTACATGTATTTGTTAAATA [XGTACX_site4465]”, the “gcPBM binding intensity (ln)” value was 11.2 ± 0.61.
In the case of “AATTATGCATTTGTCACACATATATATTACACTTGC [CACACA_site5324]”, the “gcPBM binding intensity (ln)” value is reported as 10.035 ± 0.007.
With “AAAAAAAAAAAAAAATGTACATTATACACATTATAT [XGTACX_site6824]” the “gcPBM binding intensity (ln)” value was 11.1 ± 0.61.
In the case of “TAGCCAAAATATAATTTACACACTTATTAAATAATT [CACACA_site7963]”, the “gcPBM binding intensity (ln)” value is reported as 9.69 ± 0.099.
“AAGAAAAATGTCATATGATATCATATATTTTATAAT [TGCATGCA_negctrl_site296]” was tested, and the “gcPBM binding intensity (ln)” value was 9.76 ± 0.014.
For “AAATAAATATATATATGTACATACAAATACACGGTA [XGTACX_site8510]”, the “gcPBM binding intensity (ln)” value was 11.2 ± 0.8.
“ATTTTCCCTTGTTTTACACACGTGCTGATATGAGAT [CACACA_site2164]” was tested, and the “gcPBM binding intensity (ln)” value was 10.3 ± 0.14.
With “TTGTACTACAATCCTTTATTTATTTAAACCTGTATG [CACACA_negctrl_site428]” the “gcPBM binding intensity (ln)” value was 11.6 ± 1.1.
For “AGGAGGATATTACACAGTACCCAGGAAATCTACGGA [XGTACX_site4878]”, the “gcPBM binding intensity (ln)” value was 10.8 ± 0.47.
For TTTCAATGCATAAAAGTGCGCAATAATTTAAAGATC, the “gcPBM binding intensity (ln)” value was 10.4 ± 0.32.
For “TATATAAATAGACACACACACACATATAAATAAATA [CACACA_site7855]”, the “gcPBM binding intensity (ln)” value was 10.2 ± 0.3.
For “AAAAAAAAATAAAATAAAATAAAATAAAATAATATA [CACACA_negctrl_site1798]”, the “gcPBM binding intensity (ln)” value was 9.29 ± 0.39.
AAACAAATGTACAAAGTGCATATTTTTTTCAAAAGG was tested, and the “gcPBM binding intensity (ln)” value was 10.6 ± 0.57.
With “ACATATGTATAATAATGTACGCATTAAATATAATTA [XGTACX_site7851]” the “gcPBM binding intensity (ln)” value was 11.4 ± 0.9.
For “GACCAATACTTTAAAAGTACAAACCTTATTTTATTT [XGTACX_site2718]”, the “gcPBM binding intensity (ln)” value was 11.2 ± 0.7.
With “ATAATATATATTAATACACACACACCGATATATATA [CACACA_site9261]” the “gcPBM binding intensity (ln)” value was 10.2 ± 0.22.
In the case of “TTCAACATAATATGCACACAAAAATTATGGAACGAA [CACACA_site2111]”, the “gcPBM binding intensity (ln)” value is reported as 10.2 ± 0.18.
In the case of “AAAAAAAAAAAAATTGCACACAAAAAAAAAAAAAAA [CACACA_site8644]”, the “gcPBM binding intensity (ln)” value is reported as 10.2 ± 0.4.
“AAAAAAAACAAATACACACGCACACCGAAAAAAAAA [CACACA_site803]” was tested, and the “gcPBM binding intensity (ln)” value was 10.4 ± 0.3.
In the case of “AGAGAGAGAAATACAAGTACATGTGAAACCAATCTA [XGTACX_site2767]”, the “gcPBM binding intensity (ln)” value is reported as 11.2 ± 0.63.
In the case of “AAAAAATAAAAAAAAACACACACATACAAGCATATA [CACACA_site8451]”, the “gcPBM binding intensity (ln)” value is reported as 9.885 ± 0.007.
For “TTAATGCACTTTATTACACACACTAGTTCATTACCT [CACACA_site2294]”, the “gcPBM binding intensity (ln)” value was 10.3 ± 0.16.
For “CAGACAATAAAGAAGTGTACACATATATCAATAAAA [XGTACX_site4515]”, the “gcPBM binding intensity (ln)” value was 11.6 ± 0.76.
For “AAAAAAAAAAAACACACACACACACCCACAAAATAT [CACACA_site1447]”, the “gcPBM binding intensity (ln)” value was 10.1 ± 0.28.
For “AAAAAAAAATACCTACGTACATATATATATTATATA [XGTACX_site3983]”, the “gcPBM binding intensity (ln)” value was 11.2 ± 0.73.
For “TATATTATAATTTGAAGTACATTTTAAATTAACTAA [XGTACX_site1013]”, the “gcPBM binding intensity (ln)” value was 11.1 ± 1.
For “ATATAATAGTATATATGTACATATATTTAAATACTA [XGTACX_site1135]”, the “gcPBM binding intensity (ln)” value was 11.2 ± 0.49.
“TAACATAGCAATGTTTCACACACAAGAAAAAATACA [CACACA_site8747]” was tested, and the “gcPBM binding intensity (ln)” value was 10.05 ± 0.049.
For “TGCAGTCTGGAGAAAAGTACATAGTATCTGGTAGCT [XGTACX_site2547]”, the “gcPBM binding intensity (ln)” value was 11.3 ± 0.76.
“TAATTAAGCATAAATATAATTTTATATTTTATTTCC [XGTACX_negctrl_site321]” was tested, and the “gcPBM binding intensity (ln)” value was 9.35 ± 0.11.
For “ATTTGTAATTTATTCAAACACACAATTTGGACCTTT [CACACA_site1062]”, the “gcPBM binding intensity (ln)” value was 10.3 ± 0.39.
